By GI50 is commonly meant the concentration at which growth is held to half of that of the control. One may read the TGI as the concentration giving total growth inhibition. Low values mean more potent growth arrest, high ones less potent growth arrest.

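Tested at 5 concentrations; 48 h exposure; 96-well plates; endpoints linearly interpolated, else capped at highest concentration. GI50 is the concentration that inhibits growth by half. TGI is the concentration that stops growth completely.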

Experimental findings from PubChem BioAssay (NCI) are described below.

The assay relates to NCI-H322M lung. Briefly: DTP human tumour cell line panel, 48 h.
Consider `O=C(N/N=C/c1ccc(-c2ccc(O)cc2)o1)c1[nH]c2ccc(Br)cc2c1-c1ccccc1`, for which the GI50 is 2.51 µM and the TGI turned out to be 21.9 µM.

Consider `CC[C@]12C=CCN3CC[C@@]4(c5ccc(OC)cc5N(C)[C@H]4[C@@](O)(C(=O)OC)[C@@H]1OC(=O)CCCC[P+](c1ccc(C)cc1)(c1ccc(C)cc1)c1ccc(C)cc1)[C@@H]32`, for which the GI50 is 1.23 µM and the TGI amounted to 5.21 µM.

Consider `Nc1nc(-c2ccccc2)c(N=Nc2ccc(Cl)cc2Cl)s1`, for which the GI50 was 5.57 µM and the TGI was 19 µM.

Consider `CC(C)NC(=O)c1cc(-c2ccc(NC(=O)Nc3ccc(N4CCN(C)CC4)c(C(F)(F)F)c3)cc2)nc2cccnc12`, for which the GI50 is 2.12 µM and the TGI stood at 4.68 µM.
